# Measured values published in the supplement of paper PMC4604168 (melanoma cell lines).
# The other results are listed elsewhere or left out. Many values rest on one well or one pass, so single values are uncertain.
# What was measured:
# Test in all cases: cell count relative to DMSO control; melanoma cells; higher = more viable cells
# Conditions in all cases: library dose: standard library concentration; 72 h
# [1] = test system: SkMel28
# [2] = test system: SkMel2
# [3] = test system: SkMel30
# [4] = test system: SkMel5
# [5] = test system: UACC257
# [6] = test system: UACC62
# [7] = test system: WM115
# [8] = test system: WM1716
# [9] = test system: WM3526
# [10] = test system: WM1745
# 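Also: cells treated in 1,536-well plates, then fixed and DAPI-stained, with nuclei counted from automated high-throughput microscope images.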
Structure (SMILES),cell count [1],cell count [2],cell count [3],cell count [4],cell count [5],cell count [6],cell count [7],cell count [8],cell count [9],cell count [10]
"C=C(c1ccc(C(=O)O)cc1)c1cc2c(cc1C)C(C)(C)CCC2(C)C [Bexarotene] + O=c1cc(-c2cccc3c2Sc2ccccc2S3)oc(N2CCOCC2)c1 [KU55933] (first compound 10 µM, partner dose 5 µM)",87.3%,89.6%,140%,103%,89.7%,81.7%,88.1%,92.3%,89.2%,–
"CCCS(=O)(=O)Nc1ccc(F)c(C(=O)c2c[nH]c3ncc(Cl)cc23)c1F + C=CCn1c(=O)c2cnc(Nc3ccc(N4CCN(C)CC4)cc3)nc2n1-c1cccc(C(C)(C)O)n1 [MK1775] (first compound 0.4 µM, partner dose 0.1 µM)",32.1%,70.6%,92.9%,35.8%,81.7%,47.2%,46.4%,55.5%,39.7%,38.1%
"CS(=O)(=O)c1ccc(C(=O)Nc2ccc(Cl)c(-c3ccccn3)c2)c(Cl)c1 [vismodegib] + C=C(c1ccc(C(=O)O)cc1)c1cc2c(cc1C)C(C)(C)CCC2(C)C [Bexarotene] (first compound 5 µM, partner dose 10 µM)",71.6%,67.8%,106%,85%,76.4%,67.4%,106%,80.2%,60.4%,135%
"CN(c1ncccc1CNc1nc(Nc2ccc3c(c2)CC(=O)N3)ncc1C(F)(F)F)S(C)(=O)=O + Cc1cc([N+](=O)[O-])ccc1NS(=O)(=O)c1cc(Cl)ccc1Cl [FH535] (first compound 0.4 µM, partner dose 5 µM)",50.7%,67%,66.7%,57.1%,56.2%,100%,70.2%,65.3%,68.5%,–
"C=C(c1ccc(C(=O)O)cc1)c1cc2c(cc1C)C(C)(C)CCC2(C)C [Bexarotene] + O=S(=O)(c1ccccc1)N(CC(F)(F)F)c1ccc(C(O)(C(F)(F)F)C(F)(F)F)cc1 [T0901317] (first compound 10 µM, partner dose 7 µM)",49.5%,79.3%,118%,54.3%,72.5%,66.2%,78.4%,63.6%,61.3%,–
"CCCS(=O)(=O)Nc1ccc(F)c(C(=O)c2c[nH]c3ncc(Cl)cc23)c1F + COc1ccc(-c2ccc3c(N4CCOCC4)nc(N4C[C@@H](C)O[C@@H](C)C4)nc3n2)cc1CO [KU0063794] (first compound 0.4 µM, partner dose 0.1 µM)",42.8%,75.5%,88%,47.7%,105%,54%,69.3%,77%,60.6%,–
"C=C(c1ccc(C(=O)O)cc1)c1cc2c(cc1C)C(C)(C)CCC2(C)C [Bexarotene] + CCc1ccc(CCOc2ccc(CC3SC(=O)NC3=O)cc2)nc1 [pioglitazone] (first compound 10 µM, partner dose 10 µM)",80.9%,98%,120%,55.5%,79%,76.9%,90.7%,94.6%,93.7%,–
"C=C(c1ccc(C(=O)O)cc1)c1cc2c(cc1C)C(C)(C)CCC2(C)C [Bexarotene] + CC(C)CCN1c2nc(Nc3cc(F)c(O)c(F)c3)ncc2N(C)C(=O)C1C [BID1870] (first compound 10 µM, partner dose 1 µM)",49.6%,66.3%,78.6%,69.6%,75.5%,66.4%,101%,78.8%,61.7%,–
"CS(=O)(=O)c1ccc(C(=O)Nc2ccc(Cl)c(-c3ccccn3)c2)c(Cl)c1 [vismodegib] + O=c1cc(-c2cccc3c2Sc2ccccc2S3)oc(N2CCOCC2)c1 [KU55933] (first compound 5 µM, partner dose 5 µM)",130%,84.6%,121%,105%,106%,97.7%,113%,90.7%,110%,–
"C=C(c1ccc(C(=O)O)cc1)c1cc2c(cc1C)C(C)(C)CCC2(C)C [Bexarotene] + COc1ccc(COc2ccc(Cc3cnc(N)nc3N)cc2OC)cc1 [GW2580] (first compound 10 µM, partner dose 5 µM)",107%,91.1%,124%,80.4%,79.1%,98.6%,91.9%,93.1%,96.4%,–
"CS(=O)(=O)c1ccc(C(=O)Nc2ccc(Cl)c(-c3ccccn3)c2)c(Cl)c1 [vismodegib] + CC(C)CCN1c2nc(Nc3cc(F)c(O)c(F)c3)ncc2N(C)C(=O)C1C [BID1870] (first compound 5 µM, partner dose 1 µM)",59.9%,73%,84.5%,70.4%,89.9%,53.3%,95.6%,94.4%,75.4%,–
"CCCS(=O)(=O)Nc1ccc(F)c(C(=O)c2c[nH]c3ncc(Cl)cc23)c1F + COc1cc2ncnc(Nc3ccc(Oc4ccccc4)cc3)c2cc1OC [SrcI1] (first compound 0.4 µM, partner dose 10 µM)",55.6%,90.9%,109%,64.3%,83.3%,58.9%,57.8%,75.7%,63.5%,–
